These are yes or no findings as the source states them, for the method shown. For part of these data: In cells and extracts the contact can be indirect. Some binding calls cover weakened binding; strength is not graded here. For part of these data: Where a sequence is shown, tags or fusion partners need not be part of it.

B1: CCS52A2, yeast two-hybrid fusion (protein, UniProt Q8VZS9 1-475)
chain: MEEDESTTPKKKSDSQLNLPPSMNRPTVSLESRINRLIDSNHYHSPSKPIYSDRFIPSRSGSNFALFDLASSSPNKKDGKEDGAGSYASLLKTALFGPVTPEKSDVVNGFSPSGNIFRFKTETQRSLNLYPPFDSDVVSGVSPSPVKSPRKILRSPYKVLDAPALQDDFYLNLVDWSAQNVLAVGLGNCVYLWNACSSKVTKLCDLGVDETVCSVGWALRGTHLAIGTSSGTVQIWDVLRCKNIRTMEGHRLRVGALAWSSSVLSSGSRDKSILQRDIRTQEDHVSKLKGHKSEICGLKWSSDNRELASGGNDNKLFVWNQHSTQPVLRFCEHAAAVKAIAWSPHHFGLLASGGGTADRCIRFWNTTTNTHLNCVDTNSQVCNLVWSKNVNELVSTHGYSQNQIIVWKYPTMSKLATLTGHSYRVLYLAVSPDGQTIVTGAGDETLRFWNVFPSPKSQSRESEIGALSFGRTTIR
B2: DRB4 (Double-stranded RNA Binding protein 4), full length, yeast two-hybrid fusion (protein, UniProt Q8H1D4 1-355)
chain: MDHVYKGQLQAYALQHNLELPVYANEREGPPHAPRFRCNVTFCGQTFQSSEFFPTLKSAEHAAAKIAVASLTPQSPEGIDVAYKNLLQEIAQKESSLLPFYATATSGPSHAPTFTSTVEFAGKVFSGEEAKTKKLAEMSAAKVAFMSIKNGNSNQTGSPTLPSERQEDVNSNVKSSPQEIHSQPSSKVVMTPDTPSKGIKVNEDEFPDLHDAPASNAKEINVALNEPENPTNDGTLSALTTDGMKMNIASSSLPIPHNPTNVITLNAPAANGIKRNIAACSSWMPQNPTNDGSETSSCVVDESEKKKLIMGTGHLSIPTGQHVVCRPWNPEITLPQDAEMLFRDDKFIAYRLVKP
B3: CCS52B, yeast two-hybrid fusion (protein, UniProt Q8LPL5 1-481)
chain: MASPQSTKTGLNLPAGMNQTSLRLETFSSSFRGISSLSSPSKSTCSDRFIPCRSSSRLHAFDLQDKEPTTPVKEGGNEAYSRLLKSELFGSDFASPLLSPAGGQGSASSPMSPCTNMLRFKTDRSNSSPSSPFSPSILGNDNGHSSDSSPPPKPPRKVPKTPHKVLDAPSLQDDFYLNVVDWSSQNVLAVGLGTCVYLWTASNSKVTKLCDLGPNDSVCSVQWTREGSYISIGTSHGQVQVWDGTQCKRVRTMGGHQTRTGVLAWNSRILSSGSRDRNILQHDIRVQSDFVSKLVGHKSEVCGLKWSHDDRELASGGNDNQLLVWNNHSQQPILKLTEHTAAVKAITWSPHQSSLLASGGGTADRCIRFWNTTNGNQLNSIDTGSQVCNLAWSKNVNEIVSTHGYSQNQIMLWKYPSMSKVATLTGHSMRVLYLATSPDGQTIVTGAGDETLRFWNVFPSVKMQTPVKDTGLWSLGRTQIR
B4: CCS52A1, yeast two-hybrid fusion (protein, UniProt Q8L3Z8 1-483)
chain: MEEEDPTASNVITNSNSSSMRNLSPAMNTPVVSLESRINRLINANQSQSPSPSSLSRSIYSDRFIPSRSGSNFALFDLSPSPSKDGKEDGAGSYATLLRAAMFGPETPEKRDITGFSSSRNIFRFKTETHRSLNSFSPFGVDDDSPGVSHSGPVKAPRKVPRSPYKVLDAPALQDDFYLNLVDWSAQNVLAVGLGNCVYLWNACSSKVTKLCDLGAEDSVCSVGWALRGTHLAVGTSTGKVQIWDASRCKRTRTMEGHRLRVGALAWGSSVLSSGSRDKSILQRDIRCQEDHVSKLAGHKSEVCGLKWSYDNRELASGGNDNRLFVWNQHSTQPVLKYSEHTAAVKAIAWSPHVHGLLASGGGTADRCIRFWNTTTNTHLSSIDTCSQVCNLAWSKNVNELVSTHGYSQNQIIVWKYPTMSKIATLTGHTYRVLYLAVSPDGQTIVTGAGDETLRFWNVFPSPKSQNTDSEIGSSFFGRTTIR
B5: DRB1, yeast two-hybrid fusion (protein, UniProt O04492 1-419)
chain: MTSTDVSSGVSNCYVFKSRLQEYAQKYKLPTPVYEIVKEGPSHKSLFQSTVILDGVRYNSLPGFFNRKAAEQSAAEVALRELAKSSELSQCVSQPVHETGLCKNLLQEYAQKMNYAIPLYQCQKVETLGRVTQFTCTVEIGGIKYTGAATRTKKDAEISAGRTALLAIQSDTKNNLANYNTQLTVLPCEKKTIQAAIPLKETVKTLKARKAQFKKKAQKGKRTVAKNPEDIIIPPQPTDHCQNDQSEKIETTPNLEPSSCMNGLKEAAFGSVETEKIETTPNLEPPSCMNGLKEAAFGSVETEKIETTPNLEPPSCMNGLKEAAFGSVETEKIETTPNLEPSSCMNGLKEAAFGSVETEKIETTPNLEPPSCMNGLKEAAFGSVETEKIETTPNLESSSCMSGLKEAAFGSVETEASHA
B6: DRB2, yeast two-hybrid fusion (protein, UniProt Q9SKN2 1-434)
chain: MYKNQLQELAQRSCFNLPSYTCIREGPDHAPRFKATVNFNGEIFESPQYCSTLRQAEHSAAEVALNALSNRGPSHSLAARILDETGVYKNLLQEIAQRVGAPLPRYTTFRSGLGHQPVFTGTVELAGITFTGDPAKNKKQAEKNAAMAAWSSLKQLAKETSSSMPEPENIDELEQVIIARALINYRIKENIGTGSSSSAPVPFAKKFFMQNLRPTSPQPSPATTSRILPFICPKQPSRSSRSSLAATSGIDRIMAAALESRSYQRPQQRFANPPYVPMRQFRSQCHGMAPPVTIRTAVPVFSAPPMPPPPCTNNTQLPSSVYVPSLMRTAPPVRIAPPVTIRTAVPVFASAPPVRIRTAVKPTVEAGETRISSVQEKESIPVLPDSLEIGVEGSTITITDCEKTASKETERAEFKDSSKGEPETARERLENLKI
B7: DRB5, yeast two-hybrid fusion (protein, UniProt Q8GY79 1-393)
chain: MYKNQLQELAQRSCFNLPSYTCIREGPDHAPRFKASVNFNGEIFESPTYCSTLRQAEHAAAEVSLNVLSSRVPSKSLTAKILDETGIYKNLLQETAHRAGLDLPMYTSVRSGSCHFPGFSCTVELAGMTFTGESAKTKKQAEKNAAIAAWSSLKKMSSLDSQDEEKEQEAVARVLSRFKPKEVRRRETTNQWRRRTSQQDSNKDLLIERLRWINLLTNQASSSSSTSTPNQHKNSSFISLIPPPPPPKSSKILPFIQQYKDRSSQEAKTETATEMINSKAKVNETSTRLSKQMPFSDMNRYNFVGGCSVNPYSLAPAVQMRSVIPVFAAPPPKPNPNLNPSSLSSSVNEFTSSNNSCSVLNTPGLGGQEKKNLTREMIKLGSESRILDQTHDS
B8: DRB3, yeast two-hybrid fusion (protein, UniProt Q9LJF5 1-359)
chain: MYKNQLQELAQRSCFSLPSYTCTREGPDHAPRFKASVNFNGEIFESPTYCSTLRQAEHSAAEVALSALSSKGPSKSLTARVLDETGIYKNLLQETAHRAGLDLPVYTSVRSGPGHIPTFSCTVELAGMSFNGESAKTKKQAEKNAAIAAWFSLRKMPRLDPLRGEEKEQEIVARVLSRFRPKEVKRREPNQSRRRTVIRTIRQNTTTTTTTTGDLLCEKLRSINLYTNEASSSSPPPQRFWPSRTNLTQEQSKVKSLLEKCQEYAEKKQSLDDPKPEMRIKTSSPSPLSSSVERNCYSKLLPFPSFVLNHQKLAPAVHIRSVIPVCSAPPPKPNPNPNSSPFITRELGNGSQEKKSLPN
B9: YC-DRB1 (protein, UniProt O04492 1-419)
chain: MTSTDVSSGVSNCYVFKSRLQEYAQKYKLPTPVYEIVKEGPSHKSLFQSTVILDGVRYNSLPGFFNRKAAEQSAAEVALRELAKSSELSQCVSQPVHETGLCKNLLQEYAQKMNYAIPLYQCQKVETLGRVTQFTCTVEIGGIKYTGAATRTKKDAEISAGRTALLAIQSDTKNNLANYNTQLTVLPCEKKTIQAAIPLKETVKTLKARKAQFKKKAQKGKRTVAKNPEDIIIPPQPTDHCQNDQSEKIETTPNLEPSSCMNGLKEAAFGSVETEKIETTPNLEPPSCMNGLKEAAFGSVETEKIETTPNLEPPSCMNGLKEAAFGSVETEKIETTPNLEPSSCMNGLKEAAFGSVETEKIETTPNLEPPSCMNGLKEAAFGSVETEKIETTPNLESSSCMSGLKEAAFGSVETEASHA
B10: YC-DRB2 (protein, UniProt Q9SKN2 1-434)
chain: MYKNQLQELAQRSCFNLPSYTCIREGPDHAPRFKATVNFNGEIFESPQYCSTLRQAEHSAAEVALNALSNRGPSHSLAARILDETGVYKNLLQEIAQRVGAPLPRYTTFRSGLGHQPVFTGTVELAGITFTGDPAKNKKQAEKNAAMAAWSSLKQLAKETSSSMPEPENIDELEQVIIARALINYRIKENIGTGSSSSAPVPFAKKFFMQNLRPTSPQPSPATTSRILPFICPKQPSRSSRSSLAATSGIDRIMAAALESRSYQRPQQRFANPPYVPMRQFRSQCHGMAPPVTIRTAVPVFSAPPMPPPPCTNNTQLPSSVYVPSLMRTAPPVRIAPPVTIRTAVPVFASAPPVRIRTAVKPTVEAGETRISSVQEKESIPVLPDSLEIGVEGSTITITDCEKTASKETERAEFKDSSKGEPETARERLENLKI
B11: YC-DRB4 (protein, UniProt Q8H1D4 1-355)
chain: MDHVYKGQLQAYALQHNLELPVYANEREGPPHAPRFRCNVTFCGQTFQSSEFFPTLKSAEHAAAKIAVASLTPQSPEGIDVAYKNLLQEIAQKESSLLPFYATATSGPSHAPTFTSTVEFAGKVFSGEEAKTKKLAEMSAAKVAFMSIKNGNSNQTGSPTLPSERQEDVNSNVKSSPQEIHSQPSSKVVMTPDTPSKGIKVNEDEFPDLHDAPASNAKEINVALNEPENPTNDGTLSALTTDGMKMNIASSSLPIPHNPTNVITLNAPAANGIKRNIAACSSWMPQNPTNDGSETSSCVVDESEKKKLIMGTGHLSIPTGQHVVCRPWNPEITLPQDAEMLFRDDKFIAYRLVKP

One test deals with T1, DRB4 (Double-stranded RNA Binding protein 4), full length, yeast two-hybrid fusion (Arabidopsis) (UniProt Q8H1D4).
T1 sequence: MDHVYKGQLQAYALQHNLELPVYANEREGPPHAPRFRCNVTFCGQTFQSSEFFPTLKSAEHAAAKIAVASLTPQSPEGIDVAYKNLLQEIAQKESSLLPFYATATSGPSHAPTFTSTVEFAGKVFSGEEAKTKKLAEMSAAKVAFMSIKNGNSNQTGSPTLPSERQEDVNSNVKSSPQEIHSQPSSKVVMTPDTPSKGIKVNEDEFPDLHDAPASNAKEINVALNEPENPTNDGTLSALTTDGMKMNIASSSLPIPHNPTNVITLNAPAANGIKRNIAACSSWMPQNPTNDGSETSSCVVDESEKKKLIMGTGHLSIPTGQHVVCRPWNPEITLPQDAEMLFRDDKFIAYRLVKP
The test is described as follows: two-hybrid; pair-wise, cross-mating of S. cerevisiae PJ69-4a and PJ69-4 alpha; diploids on SD-LW, interactions selected on -LWA; 28°C for 3 days (Figure 2).
As to B1, the binding result is recorded as “no binding”. Take B2: the binding result is “binds”. With B3, the binding result was “no binding”. The same measure, in the same setting: for B4 the value was “no binding”.

For the next test, the target named is T2, APC10/DOC1, yeast two-hybrid fusion (Arabidopsis) (UniProt Q9ZPW2).
T2 sequence: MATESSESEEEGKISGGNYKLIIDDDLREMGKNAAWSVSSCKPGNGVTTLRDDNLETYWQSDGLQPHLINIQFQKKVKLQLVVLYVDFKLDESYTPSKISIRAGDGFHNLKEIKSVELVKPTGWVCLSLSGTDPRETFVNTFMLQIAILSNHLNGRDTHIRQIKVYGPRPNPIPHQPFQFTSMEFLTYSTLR
Described as above.
Turning to B5, the binding result is reported as “no binding”. Regarding B6, the binding result is given as “no binding”. As for B2, the binding result is given as “binds”. On the same count and under the same terms, for B7 the value was “no binding”. For B8, the binding entry is “no binding”.

In the next test the target is T3, YN-APC10 (Arabidopsis) (UniProt Q9ZPW2).
T3 sequence: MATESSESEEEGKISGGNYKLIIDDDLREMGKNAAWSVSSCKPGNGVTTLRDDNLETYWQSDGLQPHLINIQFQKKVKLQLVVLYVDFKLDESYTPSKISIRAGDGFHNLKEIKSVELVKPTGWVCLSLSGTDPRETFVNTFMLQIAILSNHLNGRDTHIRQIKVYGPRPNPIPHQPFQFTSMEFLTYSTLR
The test is described as follows: split reporter; BiFC (split YFP): YN and YC plasmids co-bombarded with NLS-CFP into hypocotyl cells of 4 day-old etiolated mustard seedlings; fluorescence microscopy after a night at 25°C in darkness.
Turning to B9, the binding entry is “no binding”.

As to B10, the binding entry was “no binding”.

With B11, the binding entry is “binds”.

The record behind these values is paper PMC3335838.
